Results from PubChem BioAssay AID360 (National Center for Advancing Translational Sciences (NCATS), 2006).
Out of some 48,000 compounds screened, about 550 (1.1%) were called active. Another 4% or so got no clear call; they are omitted. No stated cut-off is given here; in the data, active means potency below about 15 µM; inconclusive means mostly about 16 µM to 33 µM; inactive means weaker than that. Some of the results follow.

Each molecule was assayed against Lysosomal acid glucosylceramidase (Homo sapiens) (UniProt P04062) (assay: Glucocerebrosidase). Details: purified enzyme, resorufin glucoside fluorescence (screen aimed at inhibitors), 20 min.
Sequence of UniProt P04062 (P04062 whole entry, looked up): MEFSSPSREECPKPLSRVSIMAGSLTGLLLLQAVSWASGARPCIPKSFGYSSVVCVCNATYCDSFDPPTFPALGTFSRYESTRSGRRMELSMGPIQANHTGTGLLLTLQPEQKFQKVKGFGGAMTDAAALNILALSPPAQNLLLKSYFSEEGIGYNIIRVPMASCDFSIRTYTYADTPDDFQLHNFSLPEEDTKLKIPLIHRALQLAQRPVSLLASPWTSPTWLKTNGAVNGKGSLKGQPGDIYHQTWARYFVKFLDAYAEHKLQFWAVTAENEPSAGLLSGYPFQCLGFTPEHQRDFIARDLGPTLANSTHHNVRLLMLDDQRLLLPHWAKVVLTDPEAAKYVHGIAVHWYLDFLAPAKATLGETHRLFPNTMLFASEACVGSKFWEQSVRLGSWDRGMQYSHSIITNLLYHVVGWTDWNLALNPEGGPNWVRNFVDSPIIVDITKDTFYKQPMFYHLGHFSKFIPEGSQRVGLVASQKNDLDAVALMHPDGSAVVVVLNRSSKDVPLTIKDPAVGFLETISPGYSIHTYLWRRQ
Outline: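 Compounds titrated against 0.2 nM normal enzyme, 30 uM resorufin beta-D-glucopyranoside substrate, citrate/phosphate buffer with taurocholate and tween-20, pH 5.9. Reaction ran 20 min at room temperature; fluorescence (Ex 548/Em 600) gave AC50.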
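Further: the screen sought inhibitors.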
Potency means the concentration at half of the fitted maximal effect.

Potency, inactive:
Cc1oc2c(CN3CCCC3)c(O)ccc2c(=O)c1-c1ccccc1 > 76.9 µM
CC(=O)NC1Sc2ccccc2N=C1c1ccccc1 (stereo unspecified) > 76.9 µM
N#Cc1ccccc1NC(=O)CSc1nccn1CCc1ccccc1 > 76.9 µM
CCCOC(=O)CSc1nnc(-c2ccc(Cl)cc2Cl)o1 > 76.9 µM
O=C(Nc1ccccc1C(=O)N1CCN(c2ccccc2)CC1)c1ccco1 > 76.9 µM
CCOC(=O)Cc1csc(NC(=O)C2C3C=CC(C3)C2C(=O)O)n1 (stereo unspecified) > 76.9 µM
Cc1ccc(S(=O)(=O)Cn2nnnc2CN(Cc2ccco2)Cc2cccs2)cc1 > 76.9 µM
COC(=O)C1C(=O)C2=C(CC1C)NC(=O)CC2c1ccccc1 (stereo unspecified) > 76.9 µM
COc1ccc(CCNC(=O)CC2Nc3ccccc3NC2=O)cc1OC (stereo unspecified) > 76.9 µM
N#Cc1ccccc1CSc1ccccn1 > 76.9 µM
CCOC(=O)N1CCN(C(=O)C2CCC(=O)N2C(C)C)CC1 (stereo unspecified) > 76.9 µM
COc1ccc(Cn2nnnc2C(c2cc3cccc(C)c3[nH]c2=O)N2CCOCC2)cc1 (stereo unspecified) > 76.9 µM
O=C(COC(=O)CCC(=O)c1ccc(F)cc1)Nc1ccc(N2CCOCC2)cc1 > 76.9 µM
O=C(O)Cn1cc(C(=O)c2ccco2)c2ccccc21 > 76.9 µM
CN1CCN(c2ccccc2NC(=O)c2cc(Br)ccc2Cl)CC1 > 76.9 µM
NS(=O)(=O)c1ccc(NC(=O)N[C@@H](Cc2ccccc2)C(=O)O)cc1 > 76.9 µM
COc1ccc(OC)c(NC(=O)C2CCN(S(=O)(=O)c3c(C)noc3C)CC2)c1 > 76.9 µM
O=C(Nc1ccccn1)c1c(O)c2cccc3c2n(c1=O)CCC3 > 76.9 µM
CC(=O)c1cc(C#N)c(SCC(=O)OC(C)C)nc1C > 76.9 µM
CC1(C)CC(=O)C2=C(C1)N(c1ccccc1)C(N)=C(C#N)C2c1cccnc1 (stereo unspecified) > 76.9 µM
CCOCCn1c(CN2CCN(c3ccc(OC)cc3)CC2)nc2c1c(=O)n(C)c(=O)n2C > 76.9 µM
O=c1c2ccccc2nc(SCc2nnc(-c3ccccc3)o2)n1-c1ccc(F)cc1F > 76.9 µM
Cc1ccc(NC(=O)NC(=O)N(c2ccccc2)S(C)(=O)=O)cc1 > 76.9 µM
O=C(CCCSc1nc2ccccc2[nH]1)NCc1ccco1 > 76.9 µM
O=C(Nc1c2c(nn1-c1ccc(F)cc1)CS(=O)(=O)C2)C12CC3CC(CC(C3)C1)C2 > 76.9 µM
COc1nc(OC)nc(N2CCC(C(=O)NCC3CCCCC3)CC2)n1 > 76.9 µM
CC1(C)CC(=O)c2cc(C(=O)NC3CCSC3=O)c(=O)n(-c3ccccc3)c2C1 (stereo unspecified) > 76.9 µM
CNC(=O)c1nnn(Cc2ccccc2)c1NC(=O)C(F)(F)F > 76.9 µM
O=C(CCCn1c(SCC(=O)NC2CCCC2)nc2ccccc2c1=O)NCC1CCCO1 (stereo unspecified) > 76.9 µM
C=CCN(c1ccc(C(=O)N2CCCC2)cc1)S(C)(=O)=O > 76.9 µM
[O-][N+]1=c2ccc(Nc3ccccc3)cc2=NC12CCCCC2 > 76.9 µM
CCN(CC(=O)N1CCCCCC1)S(=O)(=O)c1ccc(Cl)cc1 > 76.9 µM
CCCOP(=O)(c1ccc(N(C)C)cc1)C(O)c1ccccc1OC (stereo unspecified) > 76.9 µM
O=C(CCCN1C(=O)c2ccccc2C1=O)N1CCN(c2ccccn2)CC1 > 76.9 µM
COc1ccc(Cn2c(C)nc3oc4cc(OC)ccc4c(=O)c3c2=O)cc1 > 76.9 µM
COC(=O)c1ccccc1NC(=O)C1CCCCC1C(=O)O (stereo unspecified) > 76.9 µM
Cn1cccc1C(=O)OCC(=O)Nc1cc(C(C)(C)C)nn1-c1ccccc1 > 76.9 µM
COCc1c(Br)c(C)nc(OCC(=O)O)c1C#N > 76.9 µM
CCCn1nnc(NC(=O)c2cccc(OCC(C)C)c2)n1 > 76.9 µM
CCOc1ccc(-n2c(SCC(=O)Nc3ccc(OC)cc3OC)nc3c(c2=O)SCC3)cc1 > 76.9 µM
CCSc1nc2nc(C)cc(C)n2n1 > 76.9 µM
CN1c2ccccc2C(C)(C)C12CCCC(=O)N2 (stereo unspecified) > 76.9 µM
O=C(CN1C(=O)c2cccc3cccc1c23)N1CCN(c2cccc(Cl)c2)CC1 > 76.9 µM
O=S(=O)(c1ccc(F)cc1)N1CN(Cc2ccco2)c2nc3ccccc3nc21 > 76.9 µM
CCc1ccc(NC(=O)CCn2c(=O)oc3ccccc32)cc1 > 76.9 µM
CC1CN(c2nc3c(c(=O)n(C)c(=O)n3C)n2Cc2c(Cl)cccc2Cl)CC(C)O1 (stereo unspecified) > 76.9 µM
CCOC(=O)c1c(C)[nH]c(C(=O)CSc2nnnn2-c2ccc(C)cc2)c1C > 76.9 µM
O=S(=O)(NCc1ccc2c(c1)OCO2)c1ccc2c(c1)oc1ccccc12 > 76.9 µM
CCCCn1c(=S)[nH]c2c(oc3ccc(Cl)cc32)c1=O > 76.9 µM
O=C(c1c[nH]c2ccc(S(=O)(=O)N3CCOCC3)cc2c1=O)N1CCCC1 > 76.9 µM
C=CCn1c(=O)c2c(C)c(C)sc2n2c(Nc3ccc(OC)cc3)nnc12 > 76.9 µM
NC(=O)c1c(-c2cccs2)csc1N > 76.9 µM
Cc1onc(-c2ccccc2)c1C(=O)N1CCN(C(=O)c2ccco2)CC1 > 76.9 µM
O=C(NC(NCc1ccccn1)(C(F)(F)F)C(F)(F)F)c1ccco1 > 76.9 µM
COc1ccc(CCC(=O)Nc2ccc(Br)cn2)cc1 > 76.9 µM
Cc1sc2nc(C3CC3)nc(SCC(=O)NCc3ccco3)c2c1C > 76.9 µM
COCCCNc1ccnc2c(Cl)cccc12 > 76.9 µM
CCC(C(=O)Nc1cnccn1)c1ccccc1 (stereo unspecified) > 76.9 µM
O=C(CN1CCC(n2nnc3ccccc32)CC1)Nc1ccc2c(c1)CCC2 > 76.9 µM
O=C1NC(c2ccccc2)(C(F)(F)F)SC2=CCCCCN12 (stereo unspecified) > 76.9 µM
CN(C)S(=O)(=O)c1ccc(C(=O)N2CCCC2c2nc3ccccc3s2)cc1 (stereo unspecified) > 76.9 µM
O=S1(=O)NC(=NCc2ccccc2)c2ccccc21 > 76.9 µM
CC(=O)N1CCN(c2ccccc2NC(=O)c2cc(Br)ccc2Cl)CC1 > 76.9 µM
COc1ccc(CCN2CCCn3c2nc2c3c(=O)n(Cc3ccccc3F)c(=O)n2C)cc1OC > 76.9 µM
Cc1ccc(N2CCN(C(=O)c3ccccc3)CC2)c(C)c1 > 76.9 µM
Cc1ccc2cc(CCNC(=O)c3ccc(Br)o3)c(=O)[nH]c2c1 > 76.9 µM
CCc1c(C)[nH]c(=S)c(C#N)c1C > 76.9 µM
O=C(Nc1ccc(N2CCN(c3ccc(O)cc3)CC2)cc1)Oc1ccccc1 > 76.9 µM
CC(=O)CN1Cc2ccccc2/C1=N\C(=O)Nc1ccccc1 > 76.9 µM
Cc1cc(N2CCN(c3ccccc3F)CC2)nc2cc(O)ccc12
Cc1ccc(SCc2cc(=O)n3[nH]cnc3n2)cc1 > 76.9 µM
Cc1ccc2c(c1)N(CCC(=O)NCC1CCCO1)C(=O)CO2 (stereo unspecified) > 76.9 µM
CSc1nc(NC(C)C)nc(N2CCOCC2)n1 > 76.9 µM
COc1ccc(C(CNC(=O)C2CC(=O)N(Cc3ccc(C)cc3)C2)N(C)C)cc1 (stereo unspecified) > 76.9 µM
Cc1cc2oc(=O)cc(C)c2cc1NC(=O)CCC(=O)O > 76.9 µM
CC(=O)c1c(N2CCN(C(=O)C3CCCO3)CC2)nc(=S)n(-c2ccccc2)c1C (stereo unspecified) > 76.9 µM
N#Cc1ccc(COC(=O)Cn2nnc(-c3ccccc3)n2)cc1 > 76.9 µM
CCOC(=O)CSc1nc2c(cnn2-c2ccc(C)cc2)c(=O)[nH]1 > 76.9 µM
COc1ccc(C(=O)C2CCN(S(=O)(=O)c3ccc4c(c3)OCCO4)CC2)cc1 > 76.9 µM
COc1ccc2nc3oc(C(=O)N4CCCCC4)cc3cc2c1 > 76.9 µM
O=C(Cc1ccc(F)cc1)OCC(=O)c1cc2ccccc2o1 > 76.9 µM
CC1=CC(c2ccccc2)n2nc(N3C(=O)c4ccccc4C3=O)nc2N1 (stereo unspecified) > 76.9 µM
Cc1c(NC(=O)C(C)Oc2ncnc3ccccc23)c(=O)n(-c2ccccc2)n1C (stereo unspecified) > 76.9 µM
CCCS(=O)(=O)N1CCCC(C(=O)NCC2CCCO2)C1 (stereo unspecified) > 76.9 µM
O=C(Nc1ccc(N2CCCCC2)cc1)c1cccnc1
Cn1nnnc1SCc1cc(=O)n2ccsc2n1 > 76.9 µM
CCOc1ccc(Nc2nc(Cc3nnc(SCC(N)=O)o3)cs2)cc1 > 76.9 µM
CCc1nc2oc3ccccc3c(=O)c2c(=O)n1Cc1ccc(OC)cc1 > 76.9 µM
COc1ccccc1OCCSc1ncnc2nc[nH]c12 > 76.9 µM
CCn1c(=O)c2c(cnn2C)c2ccccc21 > 76.9 µM
COCCN1C(=O)c2ccc(C(=O)NCc3cccnc3)cc2C1=O > 76.9 µM
